# Assay results reported in PMC4336329 (PLoS ONE, 2015).
# The campaign covered roughly 310,000 compounds. About 2,200 (0.71%) showed an effect of 50% or more. Effects have a minus sign here. The list shows a part of the results.
# Molecular target: human ether-à-go-go-related gene (hERG) potassium channel (human, UniProt Q12809)
# Assay: primary screen, population patch clamp on CHO cells stably expressing hERG
# human ether-à-go-go-related gene (hERG) potassium channel, sequence (Q12809 whole entry, looked up): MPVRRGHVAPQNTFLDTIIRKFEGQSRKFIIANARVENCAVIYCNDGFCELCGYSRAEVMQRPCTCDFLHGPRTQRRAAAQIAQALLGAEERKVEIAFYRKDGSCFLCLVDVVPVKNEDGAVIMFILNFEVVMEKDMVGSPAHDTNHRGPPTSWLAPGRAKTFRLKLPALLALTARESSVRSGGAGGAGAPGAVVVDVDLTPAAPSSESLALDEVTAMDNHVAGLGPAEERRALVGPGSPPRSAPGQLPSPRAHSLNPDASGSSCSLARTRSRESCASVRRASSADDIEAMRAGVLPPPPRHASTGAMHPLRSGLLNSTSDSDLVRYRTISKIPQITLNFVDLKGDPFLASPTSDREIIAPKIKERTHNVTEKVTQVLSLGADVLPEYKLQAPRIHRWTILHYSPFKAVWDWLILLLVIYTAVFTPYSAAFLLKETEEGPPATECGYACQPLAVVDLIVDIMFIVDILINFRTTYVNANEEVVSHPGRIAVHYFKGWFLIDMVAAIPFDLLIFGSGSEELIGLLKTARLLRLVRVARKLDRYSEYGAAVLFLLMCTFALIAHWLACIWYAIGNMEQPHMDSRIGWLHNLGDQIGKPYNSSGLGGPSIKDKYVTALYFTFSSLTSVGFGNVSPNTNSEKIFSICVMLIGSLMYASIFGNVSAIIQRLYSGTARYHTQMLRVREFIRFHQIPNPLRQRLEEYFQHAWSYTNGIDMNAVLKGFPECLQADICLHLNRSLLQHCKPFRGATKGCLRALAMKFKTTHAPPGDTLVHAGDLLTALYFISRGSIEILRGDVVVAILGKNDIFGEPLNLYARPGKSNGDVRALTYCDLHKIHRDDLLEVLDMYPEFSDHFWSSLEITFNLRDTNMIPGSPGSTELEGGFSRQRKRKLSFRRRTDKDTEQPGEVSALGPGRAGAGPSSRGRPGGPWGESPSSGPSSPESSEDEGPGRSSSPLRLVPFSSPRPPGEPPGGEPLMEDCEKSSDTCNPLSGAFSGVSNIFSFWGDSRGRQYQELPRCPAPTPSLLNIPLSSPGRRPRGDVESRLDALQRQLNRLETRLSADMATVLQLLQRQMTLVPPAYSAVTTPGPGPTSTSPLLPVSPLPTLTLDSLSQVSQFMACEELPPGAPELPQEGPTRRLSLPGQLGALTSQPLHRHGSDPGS
row,SMILES,"hERG current change (%, negative = inhibition) at 1uM [%]"
1,NNC(=O)c1nc(-c2ccccc2)cc(-c2ccccc2)n1,3.55
2,O=C(Nc1nc2c(s1)CCCC2)C1CCCN1C(=O)c1cccs1 (stereo not shown),-3.29
3,Cc1ccccc1OCC(O)Cn1c(=N)n(CCN2CCOCC2)c2ccccc21.Cl (stereo not shown),-25.3
4,COc1ccc(CCC(=O)OCC(=O)c2ccc(C)cc2)cc1,6.18
5,COc1cc(C)c(NC(=O)COc2cccc3c2OC(C)(C)C3)cc1OC,10.8
6,CC(=O)Nc1ccc(OC(=O)c2cc3cc(Br)ccc3oc2=O)cc1,12.5
7,CC(C)N1CCN(c2ccc(O)cc2)CC1,6.22
8,CC(C)OC(=O)CSc1nnc(CNc2cccc(Cl)c2)n1C,3.68
9,O=C1NC2=C(C(=O)CCC2)C(c2ccccc2[N+](=O)[O-])N1 (stereo not shown),16
10,O=C(NCC(O)c1ccccc1)c1ccc(Cl)c(S(=O)(=O)N2CCCCC2)c1 (stereo not shown),12.4
11,C/C(=N\NC(=O)c1ccccc1O)c1ccc(NC(=O)Cc2ccccc2)cc1,-9.34
12,COc1ccc(NC2CCCN(C(=O)c3ccc(C(C)=O)cc3)C2)cc1 (stereo not shown),0.644
13,COc1ccc(CCN(C)C(=O)C2CCN(C(=O)Nc3ccccc3)CC2)cc1OC,5.21
14,CC(C)(C)NS(=O)(=O)c1ccc(Oc2ncc(C(F)(F)F)cc2Cl)cc1,18.1
15,Nc1ccc(Oc2ccc3c(c2)C(=O)NC3=O)cc1,10.9
16,Cc1ccc(Cl)cc1NC(=O)COC(=O)c1ccc(N2CCCC2)c([N+](=O)[O-])c1,6.19
17,CC(C)[C@H](NC(=O)[C@@H]1CSC2c3ccccc3C(=O)N21)C(=O)NCc1ccco1 (stereo partly shown),18
18,COC(=O)c1ccc(NC(=O)CN(C)S(=O)(=O)c2ccc(OC)c(C)c2)cc1,13.9
19,CC1Cc2ccccc2N1Cc1nc2cc(C(F)(F)F)ccc2c(=O)[nH]1 (stereo not shown),3.71
20,Cc1ccc(CNS(=O)(=O)c2ccc(-c3cnc(C4CC4)o3)cc2)cc1,15.8
21,CCCN1CCC(=O)N(CCO)CC1,3.69
22,O=C(NCc1ccco1)C12CC3CC(CC(C3)C1)C2,12.7

row,SMILES,"hERG current change (%, negative = inhibition) at 1uM [%]"
1,O=C(NCc1ccco1)c1ccc(-c2ccc(Cl)cc2)o1,6.11
2,COc1cccc(CC(=O)Nc2ccc(-c3csc(C)n3)cc2)c1,10.5
3,CCOC(=O)C1CCN(Cc2ccccn2)CC1.O=C(O)C(=O)O,16
4,Cc1ccc(N(CC(=O)NCc2ccccc2)C(=O)CCC(=O)Nc2nccs2)cc1,11.7
5,O=C(CCCc1nc(-c2ccc(Cl)cc2)no1)N1CCOCC1,-9.31
6,CC1=NN(c2cccc([N+](=O)[O-])c2)C(=O)C1,19.7
7,O=C(CC(c1ccccc1)c1ccccc1)NCC(O)c1ccc([N+](=O)[O-])cc1 (stereo not shown),-13.4
8,C/C(=N\OCC(=O)NC12CC3CC(CC(C3)C1)C2)c1cc2ccccc2o1,-4.89
9,CC(c1ccco1)N(C(=O)c1ccccc1NS(=O)(=O)c1ccc(Cl)c([N+](=O)[O-])c1)c1ccccn1 (stereo not shown),3.81
10,O=C(C1CCCN(Cc2ccccc2)C1)N1CCCCC1.O=C(O)C(=O)O (stereo not shown),13
11,CC1CCCCC12NC(=O)N(CC(=O)Nc1ccc(N3CCOCC3)cc1)C2=O (stereo not shown),4.35
12,CCOC(=O)c1sc(NC(=O)CS(=O)(=O)c2ccc(C)cc2)nc1C,8.72
13,COc1ccc(CCC(=O)Nc2nc3c(s2)CN(C)CC3)cc1OC,16.7
14,Cc1cc(C)n(CC2CC(=O)N(c3ccc(F)c(Cl)c3)C2=O)n1 (stereo not shown),8.51
15,CCn1c(COc2ccccc2C)nnc1SCC(=O)OC,-3.42
16,COc1cccc(NC2=NCCCCC2)c1,7.57
17,COc1ccc(CCNC(=O)C2CCN(S(=O)(=O)c3ccc(SC)cc3)CC2)cc1,14.8
18,CCOC(=O)N1CCN(C(=O)/C(=C/c2ccc(Cl)cc2)NC(=O)c2ccccc2)CC1,-38.6
19,O=C(CCCC(=O)c1ccc(O)cc1)c1ccc(O)cc1,-0.188
20,Cc1ccc(S(=O)(=O)N(C)C)cc1NC(=O)COC(=O)Cc1n[nH]c(=O)c2ccccc12,10.7
21,CCOc1ccc(C2=CC(=O)C[C@H](c3ccc(OC)cc3)C2)cc1,13.3
22,O=C(NCCN1CCOCC1)c1cc(S(=O)(=O)NCCCN2CCCC2=O)ccc1Cl,8.55

row,SMILES,"hERG current change (%, negative = inhibition) at 1uM [%]"
1,Cc1ccc(NC(=O)CSc2nc(C)c(C)c(C)n2)c([N+](=O)[O-])c1,9.55
2,COc1ccc(-n2ccnc2CN2CCN(C3CCCC3)C(CCO)C2)cc1 (stereo not shown),5.31
3,COc1cccc(C2C=C(c3ccc(OC)cc3OC)Nc3nnnn32)c1 (stereo not shown),13.8
4,CCOc1ccccc1NC(=O)Nn1cnnc1,9.42
5,Cc1cc(/C=N/Nc2ccc([N+](=O)[O-])cn2)c(C)n1-c1cccc(C(=O)O)c1,11.3
6,O=C(COc1ccc([N+](=O)[O-])cc1)NNC(=S)NC(=O)c1ccc(Br)cc1,7.7
7,NC(=O)SCC(=O)Nc1ccc(Cl)c(Cl)c1,-0.294
8,CCOc1ccc(NC(=O)CCNC(=O)Cn2cnc3ccccc3c2=O)cc1,18.9
9,Cc1cc(C)nc(SCc2nnc(SCC(=O)NCc3ccco3)n2-c2ccccc2)n1,-9.04
10,Cc1ccc(Cl)cc1NC(=O)COC(=O)C1CC1,5.65
11,COc1ccc(NC(=O)c2n[nH]c(=O)c3ccccc23)cc1S(=O)(=O)N1CCCCC1,11.3
12,O=C(Cn1nnc(-c2ccccc2)n1)N1CCN(c2ccc(F)cc2)CC1,7.89
13,CCOC(=O)c1c(C)[nH]c(C)c1C(=O)CSc1nnc(-c2ccc(OC(F)F)cc2)o1,9.18
14,Cc1ccc(-c2nc(CS(=O)CC(=O)NCc3ccco3)c(C)o2)cc1 (stereo not shown),11.5
15,CCCNC(=O)CN(C)C(=O)c1n[nH]c2ccccc12,-8.69
16,COc1ccc(NC(=O)CSc2nnc3ccc(-c4cccnc4)nn23)c(OC)c1,10.2
17,COc1cccc(C(=O)Nc2ccccc2OC(F)(F)F)c1,5.06
18,CC(C)(C)C(=O)NCC12C=CC(O1)C1C(=O)N(c3ccccc3)C(=O)C12 (stereo not shown),8.36
19,CSc1ccccc1NC(=S)NCc1ccc(Cl)cc1,6.28
20,CSc1nc2ncc3c(n2n1)CC1c2ccccc2CCN1C3=O (stereo not shown),-8.39
21,COc1cc(/C=C/C(=O)O)cc(S(=O)(=O)N2CCc3ccccc3C2)c1OC,11.8
22,O=C(COC(=O)/C=C/c1ccc(Cl)cc1)NCCC1=CCCCC1,12.5

row,SMILES,"hERG current change (%, negative = inhibition) at 1uM [%]"
1,CCCCN=c1sc(C(=O)OC)cc(=O)n1CCCC,14.4
2,O=C(CN1CCN(c2ccccc2F)CC1)Nc1ccc2c(c1)CCC2,-3.97
3,Cc1csc2nc(SCC(=O)Nc3ccccc3F)[nH]c(=O)c12,11.5
4,O=C(Cn1nc(C(F)(F)F)c2c1CCCC2)NC1CCCC1,-8.2
5,C[C@H]1COC2=C1C(=O)C(=O)c1c2ccc2c1CCCC2(C)C,6.53
6,CN1CCC(N(C)S(=O)(=O)c2ccc(NC(=O)Cc3ccc(F)cc3)cc2)CC1,12.9
7,Cc1nnc(SCC(=O)NC2CCCc3ccccc32)n1-c1ccccc1 (stereo not shown),4.51
8,Cc1cc(Cl)nc(NC(=O)Nc2cccc(Cl)c2)n1,13
9,COc1ccccc1NC(=O)NNC(=O)c1ccc(-c2ccccc2)cc1,4.08
10,CCn1c(SCC(=O)Nc2ccccc2-c2ccccc2)nnc1-c1ccoc1C,-4.96
11,O=C(C1CCN(S(=O)(=O)c2cccs2)CC1)N1CCCC(C(F)(F)F)C1 (stereo not shown),3.54
12,CCSC1=C(C#N)C(c2cccc(Br)c2)CC(=O)N1 (stereo not shown),16.8
13,COc1cccc(-c2nnc(NC(=O)c3cccc(F)c3)o2)c1,14.3
14,COc1ccc(-c2[nH]ncc2CN2CCN(c3ccc(F)cc3)CC2)cc1,-4.53
15,C/C(Cn1nnc([N+](=O)[O-])n1)=N\NC(=O)c1ccc(O)cc1O,8.33
16,COc1cccc(N/N=C/c2cccc(Br)c2O)c1,8.9
17,O=C(c1cccc(NC2=NC3CS(=O)(=O)CC3S2)c1)N1CCN(c2ncccn2)CC1 (stereo not shown),13.3
18,CCOc1cc2nc(-c3ccc(OC)c(OC)c3)nc(NCCCN3CCOCC3)c2cc1OC,4.87
19,CC12C(=O)N(c3nccs3)C(=O)C1C1C=CC2C1 (stereo not shown),13.1
20,CC(C)(C)NC(=O)COC(=O)c1ccccc1Nc1ccc(SC(F)F)cc1,-1.3
21,Cc1cc(O)c(-c2cc(C(=O)Nc3cccnc3)[nH]n2)cc1C,14.8
22,Cc1c(C(=S)Nc2ccccc2)cnn1-c1ccc([N+](=O)[O-])cc1,15.1
